# According to the supplement of paper PMC3724861:
# The other results are listed elsewhere or left out.
# Tested on: T1, Caupolican (Caup) homeodomain DNA-binding domain
# T1 sequence: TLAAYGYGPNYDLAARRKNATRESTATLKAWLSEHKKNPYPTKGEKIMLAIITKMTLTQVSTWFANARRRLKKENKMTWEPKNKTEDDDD
# Test: PBM E-score (8-mer, recovered from the published 9-mer minima) (E-score (dimensionless, -0.5 to 0.5)); Drosophila protein; higher = stronger relative binding preference, active = 0.31 or more
# Summary of the method: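 Caup's homeodomain DNA-binding domain (residues 214-303) was produced by in vitro transcription and translation and applied at 100 nM to custom-designed protein binding microarrays. Each value is an enrichment score giving relative binding preference for a short DNA word; higher means stronger. Published 9-mer scores were the minimum of their two constituent 8-mer scores, and the 8-mer values were recovered from those minima. A cutoff of 0.31 marks candidate binding sequences.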
row,Sequence,PBM E-score
1,CAGTAGCC,inactive: -0.173
2,CCAATTTC,inactive: 0.0186
3,CGATACAG,inactive: 0.0506
4,AGAGTATG,inactive: -0.0417
5,CCGGGAAG,inactive: -0.197
6,AAGATCGC,inactive: 0.0108
7,CCGTCCGA,inactive: -0.219
8,ACACGTCC,inactive: 0.212
9,GGTACTTA,inactive: 0.0548
10,ATAGAGTC,inactive: 0.0201
11,ACCTTTGC,inactive: -0.0471
12,CCAGTGGG,inactive: -0.228
13,GAACGAAA,inactive: -0.0649
14,CCGTAGCA,inactive: -0.0871
15,CATTGACG,inactive: -0.00626
16,AGGTTAAC,inactive: 0.0851
17,CCATCGTA,inactive: 0.0855
18,ATTCGGGA,inactive: -0.0483
19,CCCGGGAA,inactive: -0.23
20,AATTCTTA,inactive: 0.0898
21,ACCGCAAA,inactive: -0.00912
22,ATTATCTG,inactive: 0.12
23,CTGGAGGC,inactive: -0.18
24,ATTGCGGC,inactive: -0.0444
25,CTTTGCCA,inactive: -0.134

row,Sequence,PBM E-score
1,AGTTTATC,inactive: 0.144
2,AACATGTC,active: 0.424
3,GACAGACA,inactive: 0.255
4,ATTAACGA,≥ 0.149
5,AACTGCGG,inactive: -0.14
6,CGACAACG,inactive: 0.168
7,AAGTTTGG,inactive: -0.0482
8,ATCTTACG,inactive: 0.0741
9,CCGCCGAG,inactive: -0.203
10,AATAGAGG,inactive: -0.0582
11,GGCCAAGA,inactive: -0.12
12,CGTGAGAG,inactive: -0.19
13,CCCTGCAG,inactive: -0.199
14,CCTTCACG,inactive: -0.0872
15,AACTAAGT,inactive: -0.00681
16,CGTTTTGC,inactive: -0.0139
17,ATGTGTCC,inactive: 0.127
18,GGCTGGAA,inactive: -0.0833
19,CCAAAGTC,inactive: -0.146
20,CTGACAGC,inactive: -0.0248
21,CTCGCACA,inactive: -0.0236
22,GCTGGGGA,inactive: -0.187
23,GCATTACA,inactive: 0.267
24,CAAAAACC,inactive: -0.0001
25,CAAGAAGA,inactive: 0.0505

row,Sequence,PBM E-score
1,AAGAGTGT,inactive: 0.0619
2,AAAACCCG,inactive: -0.0849
3,CTATTCAC,inactive: 0.0399
4,CAGCAATC,inactive: 0.0661
5,ACGACATG,active: ≥ 0.416
6,TGGTACCA,inactive: 0.0334
7,ACATCACT,inactive: 0.303
8,CATCAACG,inactive: -0.0414
9,GATAGGAC,inactive: -0.0335
10,GGGTTAGA,inactive: -0.0985
11,CGCAAGAG,inactive: -0.088
12,GGATAGAC,inactive: 0.0611
13,ACGGTACT,inactive: 0.0745
14,GGGGCTAC,inactive: -0.206
15,ACCTACAT,inactive: 0.299
16,AAACACAC,inactive: 0.243
17,AAGCGATC,≥ 0.0356
18,TAATCCTA,inactive: 0.0768
19,AACATGAT,active: ≥ 0.424
20,CACGAACC,inactive: -0.0566
21,CAGGGTAA,inactive: 0.02
22,CAGGATCA,inactive: 0.0356
23,CCTACTAG,inactive: 0.0878
24,CGCGGACC,inactive: -0.198
25,GGTCAAGA,inactive: 0.0615

row,Sequence,PBM E-score
1,ATATGGCG,inactive: -0.00224
2,AGTGGATC,inactive: -0.0168
3,CGGACATC,inactive: 0.217
4,CGCCGAAA,inactive: -0.103
5,TATGGAAA,inactive: 0.0858
6,CACGTGAA,inactive: 0.00852
7,AGCACACG,inactive: 0.042
8,AAAATAAC,inactive: 0.0794
9,GTCGGCAC,inactive: -0.1
10,ACGAATGC,inactive: 0.0248
11,ACTTTTCA,inactive: 0.0643
12,AGGCAATC,inactive: 0.0567
13,CCTTTGTA,inactive: 0.138
14,CCACTGGG,inactive: -0.184
15,AGCCCAAT,≥ -0.00456
16,ATCGCTTG,inactive: -0.0165
17,CGGGATCA,inactive: -0.0923
18,AAGTACGT,inactive: 0.109
19,CATATCTC,inactive: 0.0782
20,CACTCCGC,inactive: -0.127
21,ACTTTCAG,inactive: -0.0396
22,GCACTCCA,inactive: -0.104
23,GCCGAGAC,inactive: -0.106
24,CAGACAGA,inactive: 0.0534
25,CATCCCAA,inactive: 0.0667

row,Sequence,PBM E-score
1,GGTACGAC,inactive: 0.0706
2,ACGATCAT,inactive: 0.125
3,GGCTACTA,inactive: 0.0331
4,CTCGATGC,inactive: -0.114
5,AATCGCAC,inactive: -0.0643
6,ATTGGGTA,inactive: 0.0577
7,GAAAACGC,inactive: -0.0485
8,CCACAGAA,inactive: -0.00495
9,GATCGATA,inactive: 0.154
10,GGTACATA,inactive: 0.282
11,ATTTATTC,inactive: 0.103
12,ACTAGAAC,inactive: 0.156
13,ATGTGAGG,inactive: 0.0921
14,GAATTTTA,inactive: 0.0305
15,AGGGGGAT,≥ -0.172
16,CTCATAGC,inactive: -0.0726
17,ACTTGCCA,inactive: 0.0184
18,CTCTTCGC,inactive: -0.128
19,CAGGGGAG,inactive: -0.158
20,CGGTTACG,inactive: -0.126
21,CACTTAGG,inactive: -0.0173
22,ATTATAGA,inactive: 0.117
23,ACAAAAGG,inactive: -0.0265
24,CTGAAGCA,inactive: -0.0958
25,TAGCCTGA,inactive: 0.0341

row,Sequence,PBM E-score
1,CCGCATCC,inactive: -0.16
2,CTACCCAG,inactive: -0.103
3,GCAACTCA,inactive: 0.038
4,CCGGCGAC,inactive: -0.197
5,ACAATAAC,inactive: 0.173
6,AGGGTTCC,inactive: -0.0703
7,GGCCCTTA,inactive: -0.112
8,GGGCGAAA,inactive: -0.115
9,TAGCAGGA,inactive: -0.0158
10,AAGTTCTG,inactive: 0.0453
11,CAGAGACC,inactive: -0.146
12,AATAGAAG,inactive: 0.0489
13,ATTCTGCC,inactive: -0.161
14,CTCGCCTC,inactive: -0.233
15,CGCGCGGA,inactive: -0.104
16,CTGGATAC,inactive: 0.0336
17,CTGCTCGC,inactive: -0.11
18,CTTAGAAA,inactive: -0.0449
19,GGTTAGAC,inactive: 0.0284
20,AACCTCGG,inactive: -0.148
21,ACCGAGCA,inactive: -0.0935
22,ACTCGCCA,inactive: -0.0459
23,ATCACCGC,inactive: -0.014
24,AGTTAGAT,inactive: 0.0521
25,AGAGACTG,inactive: -0.161

row,Sequence,PBM E-score
1,GGAATGCA,inactive: 0.00656
2,ACGAGTTG,inactive: 0.117
3,ACGCGTTA,inactive: 0.0271
4,GTTTATCA,inactive: 0.111
5,AAGTAGAC,inactive: 0.0547
6,CCCGAATA,inactive: -0.0458
7,AAATTATT,inactive: 0.16
8,TTCAACAA,inactive: 0.299
9,CCAACTAG,inactive: 0.0916
10,GCCGAACA,inactive: 0.0642
11,AACCTGAA,inactive: 0.0247
12,CATGGCAA,inactive: -0.00298
13,TGCTGTAA,inactive: 0.177
14,GGGCTTGA,inactive: -0.151
15,CCAATTGC,inactive: -0.095
16,ACACAGGG,inactive: 0.0598
17,ACTTCGGG,inactive: -0.124
18,CAAAGCAC,inactive: -0.0185
19,CTGTCTTC,inactive: -0.0198
20,AAAGTCCC,inactive: -0.13
21,GGGGATCA,inactive: -0.109
22,CGGCACGC,inactive: -0.254
23,TAGCGGAA,inactive: -0.111
24,ACAGCTAG,inactive: -0.00013
25,ATCCACTG,inactive: 0.0509

row,Sequence,PBM E-score
1,ACCTTGCT,inactive: 0.0548
2,GTATTAAC,inactive: 0.136
3,CGTGGGAA,inactive: -0.0756
4,TGCCAAAA,inactive: -0.00482
5,AAAGTTCA,inactive: 0.0717
6,ACTTTACG,inactive: 0.0969
7,GATAGAGC,inactive: -0.0871
8,CACCGTCG,inactive: -0.172
9,CCACTAAC,inactive: 0.0845
10,TGCATGAA,inactive: 0.126
11,GATACAAC,inactive: 0.207
12,ATTTACGG,inactive: 0.0533
13,ATTTTGAA,inactive: 0.0732
14,GACTCAAC,inactive: 0.0307
15,AGCAGATA,inactive: 0.0223
16,CTTGCATA,inactive: 0.0657
17,ACCCAGCG,inactive: -0.215
18,AAGGGATT,inactive: -0.0247
19,ACTGAGGA,inactive: -0.111
20,AAAGAGGT,inactive: -0.00981
21,ACCACTAT,inactive: 0.0907
22,CCATTTAC,inactive: 0.0731
23,ATTTAGCC,inactive: -0.0256
24,ATGATGAA,inactive: 0.158
25,CACATCCC,inactive: -0.0152

row,Sequence,PBM E-score
1,GGCGATAA,inactive: -0.141
2,GACATTAC,inactive: 0.199
3,AGGCCGAA,inactive: -0.0931
4,AGATCGTC,inactive: -0.0169
5,ACCAACTG,inactive: 0.0375
6,TATCGCGA,inactive: -0.0271
7,GACGAGGA,inactive: 0.0375
8,ACAAGGTG,inactive: 0.255
9,CTCTGGTA,inactive: 0.0517
10,AGCCGTGG,inactive: -0.188
11,AGAAGCAG,inactive: -0.0606
12,CATAGTGG,inactive: -0.0156
13,CGGGCTAA,inactive: -0.199
14,ACCCCGAC,inactive: -0.161
15,ACTTACCA,inactive: 0.00311
16,CCTTGGGA,inactive: -0.14
17,AGTCGAGG,inactive: -0.0754
18,TAATAGAA,≥ 0.151
19,GTAGACTA,inactive: 0.0347
20,ATATAGAA,≥ 0.159
21,AGGGTCAG,inactive: -0.187
22,AGACAGAC,inactive: 0.102
